Drawing on article PMC11543638, “Molecular basis for the reversible ADP-ribosylation of guanosine bases” (Molecular Cell, 2023), this text covers X-ray co-crystal structure for 1 compound.

The test addresses T1, P. nicotianae var. parasitica NADAR (Phytophthora nicotianae, UniProt W2PSB7).
T1 construct: gene PPTG_15997; full-length, in pDEST17 with HRV3C cleavage site allowing tag removal; expressed in E. coli
T1 sequence (W2PSB7 1-187): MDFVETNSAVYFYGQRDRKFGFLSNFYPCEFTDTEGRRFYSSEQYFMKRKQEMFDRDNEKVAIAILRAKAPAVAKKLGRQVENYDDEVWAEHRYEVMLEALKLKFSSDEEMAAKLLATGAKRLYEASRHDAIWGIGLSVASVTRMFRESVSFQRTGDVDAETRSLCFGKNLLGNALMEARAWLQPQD
The test can be described thus: X-ray co-crystal structure. As to conditions: 4 mM ADP-ribose; pH 7.5, 20 °C; active site. Type of test: binding.

On to `Nc1ncnc2c1ncn2[C@@H]1O[C@H](COP(=O)(O)OP(=O)(O)OC[C@H]2OC(O)[C@H](O)[C@@H]2O)[C@@H](O)[C@H]1O` (stereo partly shown) [ADP-ribose], for which the X-ray co-crystal structure entry is given as “The ADPr ligand in the P. nicotianae var. parasitica NADAR crystallographic map displayed a bent”.
